Laboratory results published in the supplement of paper PMC10126150.
Sequences with one replicate were seen in a single cluster, so their values are uncertain.

System: ATP
Assay: switch fluorescence ratio, 500 uM ATP over buffer (Cy3 cluster intensity, sum of 5 cycles each) (fold (ratio)); higher = stronger signal-on switching upon ATP binding; sequences stand for … in TCGTCGGCAGCGTCAGATGTGTATAAGAGACAGTTTTTTTTTTTTTTTTTTTTTTTTT…TC
Conditions: aptamer strand: ATP DNA aptamer (quencher-CACCTGGGGGAGTATTGCGGAGGAAGG + anchor), 100 nM annealed; ATP concentration: 500 uM; one replicate
Outline: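 After annealing to 100 nM quencher-labelled ATP aptamer, Cy3-labelled switching-strand clusters on a modified Illumina MiSeq flow-cell were imaged in selection buffer. A second image followed after 15 min with 500 uM ATP at 22 °C, and five such buffer/ATP cycles were done, each separated by NaOH stripping and re-annealing. The fluorescence ratio, averaged per switch-domain sequence, is summed target-cycle over summed buffer-cycle Cy3 intensity per cluster, with clusters outside 100-1000 RFU excluded.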
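Also: ATP exposure 15 min at 22 °C before imaging.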

Row | Sequence | switch fluorescence ratio
1 | ATGTCTGCTG | 1.01
2 | CACGTCTGTA | 1
3 | ATCGGAAATG | 0.952
4 | GCCAGAGAGA | 0.987
5 | GGCGAGCAAT | 1.91
6 | GGTATAGTCT | 1.02
7 | GGAGTGCAAT | 1.16
8 | GCGTAAATAG | 1.31
9 | CCCTGACATG | 0.891
10 | CGATCTCATG | 0.955
11 | GGCGTGCT | 0.965
12 | TTTCATGAAA | 0.975
13 | TAGCGCACGT | 1.01
14 | CGATACTCCA | 2.45
15 | AAAAAGTAA | 1
16 | TGTGTCGGC | 1.03
17 | GGGTAAGATT | 1.01
18 | GCCCCGACCT | 1.19
19 | TGATTGGG | 0.975
20 | CTGGGTGAGA | 1.04
21 | TAAAATAAGT | 1
22 | TACAAATACC | 1.05
23 | AGGCCGGGCG | 0.987
24 | CGACCCGAGT | 1.01
25 | CGTCGGTTCG | 1.02
26 | ATTCAATTGG | 1.01

Row | Sequence | switch fluorescence ratio
27 | ATTGCCAATG | 0.96
28 | CAAGATTACG | 1.1
29 | GCGGTGCCGG | 1.02
30 | CGGGACTCGT | 0.98
31 | TAGGGCCCCT | 1
32 | TTTATTCT | 1.03
33 | TCGATGCCCC | 1.05
34 | GCAGAAATGA | 1.02
35 | TAGCGGGGA | 1.07
36 | GTGCTCAGAG | 0.999
37 | GGTTCGGAGG | 0.968
38 | CGCTAGTCTT | 1.07
39 | CTGCAGTCAT | 1.17
40 | GAACGATGCT | 1.01
41 | ATTGCACAGG | 1.43
42 | ATATTCACTA | 0.974
43 | ATAGTGAATT | 1.03
44 | GATTTGAGG | 1.05
45 | CGAATTGCTT | 0.997
46 | GGGCGTCCAG | 1.02
47 | ACATGGCTCG | 0.978
48 | CTGCCAAGGC | 1.62
49 | CAGCACCCTG | 1.04
50 | TGCCCGATCC | 1.09
51 | CGTAAAGCCG | 0.943
52 | ATCCCCGTTT | 1.01

Row | Sequence | switch fluorescence ratio
53 | CTGGTACTGC | 1.06
54 | GATTAACTAG | 0.965
55 | AGGAGGTTC | 1.02
56 | ATAGAACCTC | 1.06
57 | CTGGGATGGC | 0.991
58 | GGGATGATAT | 0.997
59 | ATAGGTACAA | 1.03
60 | CCAATCCCTG | 1.06
61 | GGATAGACGG | 0.947
62 | TGTATTTATT | 0.987
63 | GCGTAACATA | 0.99
64 | CTATCTACAT | 1.05
65 | GTTCCGGGGG | 1.12
66 | TCATTGACAG | 1.07
67 | TTCCTGACCA | 1.13
68 | CCAGCTCTC | 1.14
69 | GCTCGTTGGC | 1
70 | TCTCGGAAC | 1.42
71 | CGGCGACTG | 0.989
72 | AAACAAGTGG | 1.06
73 | TTTGTGTTGC | 0.957
74 | ATTACGTCTG | 1.04
75 | ACTGGGCGCT | 0.992
76 | TAATCCAGTA | 0.979
77 | GATGGCTCCG | 1.01
78 | TGTCATTGCT | 0.925

Row | Sequence | switch fluorescence ratio
79 | TTGTCTGTCA | 1.02
80 | CTCGATAACG | 0.922
81 | CTTCTTTCAT | 1.01
82 | GGGCTTGGAA | 0.974
83 | AATTTTAGTT | 0.958
84 | TATGAAAAGG | 0.994
85 | GTAAATCTTA | 1.02
86 | CGAGGTCCCA | 0.981
87 | ATTACTAGAC | 1.12
88 | AGCCGTCTGC | 0.891
89 | TGTCGGAAT | 1.03
90 | GGAAGGTTGA | 1.03
91 | CTTGGCCATG | 1.01
92 | TAAGTTCAA | 1.02
93 | AAAAGGACGC | 1.08
94 | ATAGAGGGGC | 1.04
95 | CGGAA | 1.1
96 | TCACGTTGGC | 0.964
97 | CGCGACCCGA | 1.01
98 | CGGGGTAAGC | 1.04
99 | GCAAATGGGT | 1
100 | CCTGACGCTG | 1.44
101 | TTTCAATGGC | 1.13
102 | TCAATAGGTG | 1.3
103 | CGTCAGAACT | 1.02
104 | CCGGGTTCGT | 0.999

Row | Sequence | switch fluorescence ratio
105 | GAGATGCATT | 0.951
106 | ATCGACGACT | 1.02
107 | TGCGTTGAAT | 1.01
108 | GCTCGATTGT | 0.999
109 | CATATCCTCG | 1.05
110 | GCCATACGGG | 1.04
111 | AGTTTGTAAT | 0.976
112 | GGCTATGGTA | 1.02
113 | ATTAAGCTTC | 1.07
114 | AGCACGTTCC | 3.19
115 | CTGGGGGTAC | 1.06
116 | GCGACTGGGG | 0.983
117 | CCAAGGCATA | 3.77
118 | AGGGCAGTGA | 1.06
119 | ACCGATACGT | 1.19
120 | CGCTGCGCGC | 1.05
121 | GCTATACTTG | 1.17
122 | TGCAGGAGTG | 0.961
123 | CTAAAGGGAA | 1.01
124 | TAGTCTCCTA | 0.937
125 | TTAAATGCTG | 1.02
126 | CTTCCCATGG | 1.36
127 | ATAAGCTATT | 0.996
128 | TGAGCTAGCC | 1.02
129 | CAGTGACGTC | 1.03
130 | TTTCTAAGG | 1.02

Row | Sequence | switch fluorescence ratio
131 | CGTAACTACG | 1.04
132 | TAAACGCTGA | 1.07
133 | ATTCGCATCT | 1.14
134 | TCACCCCGTC | 1.04
135 | CCAAGGCTCT | 1.03
136 | GGGCCTGGGC | 0.979
137 | CGGCCGAGAC | 1.09
138 | CTCTCCGACT | 1.3
139 | ACGCACTAGT | 1.5
140 | GTCATTCGT | 0.975
141 | CATTCCAGAC | 1.6
142 | GACGGCTTAT | 0.982
143 | TAGCGCTTGT | 1.01
144 | ACATAATCAT | 1
145 | TTAAAGAGCC | 1.01
146 | TAGGAGCGTA | 1.13
147 | TATTAGAAAC | 1.04
148 | TCGGCTATCA | 0.962
149 | CGCGTGTTAC | 1.07
150 | TGACCGGCAG | 0.949
151 | CTATCACTCC | 1.16
152 | TTATGCGCT | 0.966
153 | ATTACTTTGA | 1.07
154 | GGACCTTCGA | 1.13
